# Assay results published in article PMC4336329 (PLoS ONE, 2015).
# Screen size: about 310,000 compounds; about 2,200 (0.71%) showed an effect of 50% or more. Effects have a minus sign here. Some of the results follow.
# Target: human ether-à-go-go-related gene (hERG) potassium channel (human, UniProt Q12809)
# Test: primary screen, population patch clamp on CHO cells stably expressing hERG
# Chain of human ether-à-go-go-related gene (hERG) potassium channel (Q12809 whole entry, looked up): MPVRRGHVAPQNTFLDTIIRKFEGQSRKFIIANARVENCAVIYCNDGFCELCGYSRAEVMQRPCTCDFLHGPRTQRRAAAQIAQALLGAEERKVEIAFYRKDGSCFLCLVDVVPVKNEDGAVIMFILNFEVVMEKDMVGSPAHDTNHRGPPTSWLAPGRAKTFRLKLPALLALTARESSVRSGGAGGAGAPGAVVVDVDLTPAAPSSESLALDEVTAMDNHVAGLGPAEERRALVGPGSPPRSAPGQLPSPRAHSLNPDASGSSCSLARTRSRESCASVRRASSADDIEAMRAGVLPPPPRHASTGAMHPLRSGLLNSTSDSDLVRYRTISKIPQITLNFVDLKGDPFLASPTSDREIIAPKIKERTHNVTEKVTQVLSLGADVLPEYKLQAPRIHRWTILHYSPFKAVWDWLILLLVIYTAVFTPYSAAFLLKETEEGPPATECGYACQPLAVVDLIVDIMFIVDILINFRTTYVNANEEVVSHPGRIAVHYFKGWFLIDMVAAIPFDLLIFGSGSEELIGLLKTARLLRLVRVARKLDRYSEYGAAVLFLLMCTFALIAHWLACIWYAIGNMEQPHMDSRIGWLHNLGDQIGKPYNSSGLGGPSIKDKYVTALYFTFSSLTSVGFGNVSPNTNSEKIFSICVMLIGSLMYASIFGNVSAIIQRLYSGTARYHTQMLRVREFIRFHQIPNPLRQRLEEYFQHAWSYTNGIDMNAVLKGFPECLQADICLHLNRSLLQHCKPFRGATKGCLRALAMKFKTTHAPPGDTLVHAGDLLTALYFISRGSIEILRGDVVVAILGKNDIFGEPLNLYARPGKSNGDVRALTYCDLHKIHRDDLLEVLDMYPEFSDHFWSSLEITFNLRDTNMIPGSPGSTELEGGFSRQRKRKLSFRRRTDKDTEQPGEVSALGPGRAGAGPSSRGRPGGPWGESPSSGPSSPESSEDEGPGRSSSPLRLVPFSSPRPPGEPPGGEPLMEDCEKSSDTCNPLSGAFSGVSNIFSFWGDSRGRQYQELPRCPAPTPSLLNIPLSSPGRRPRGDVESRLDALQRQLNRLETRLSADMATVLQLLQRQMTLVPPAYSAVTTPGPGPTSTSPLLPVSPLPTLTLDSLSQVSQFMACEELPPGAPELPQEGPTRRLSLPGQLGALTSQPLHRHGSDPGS
row,SMILES,"hERG current change (%, negative = inhibition) at 1uM [%]"
1,Cc1sc2nc(SCC(=O)NCCOCCO)n(C)c(=O)c2c1C,1.47
2,COc1ccccc1N1C(=O)NC(=O)C2(Cc3cc(C)ccc3N(C)C2)C1=O (stereo not drawn),-11.9
3,COC(CN1C(=O)C(O)=C(C(C)=O)C1c1ccccn1)OC (stereo not drawn),4.34
4,O=C(NCc1ccccn1)NC1CCCCC1,1.9
5,CCCCCC(=O)Nc1ccc(S(=O)(=O)Nc2cc(OC)nc(OC)n2)cc1,7.33
6,COC(=O)/C(=N/Nc1ccccc1C)N1CCCc2ccccc21,12.2
7,O=C(Nc1nnc(Cc2ccccc2)s1)c1cccs1,3.73
8,CCC(C)[C@H]1CNC(=S)N1CCc1cccc2ccccc12 (stereo partly drawn),21.9
9,CCN1CC2([N+](=O)[O-])CC=C(Cl)C([N+](=O)[O-])(C1)C2 (stereo not drawn),12.5
10,COc1cc(OC)cc(C(=O)N[C@H](C(=O)OCC(=O)c2ccc3c(c2)NC(=O)CO3)C(C)C)c1,17.5
11,CCS(=O)(=O)N(CC(=O)Nc1cccc2ccccc12)c1ccc(OC)cc1,13.9
12,Cc1ccc(NC(=O)C(C)N2CCN(C)CC2)cc1S(=O)(=O)N1CCOCC1 (stereo not drawn),15.6
13,O=C(O)CCC(=O)NNC(=O)COc1ccc2ccccc2c1Br,11.4
14,CC(C)NC(=O)CC1Nc2c3ccccc3nc(=S)n2C1=O (stereo not drawn),0.671
15,CC1COc2ccccc2N1S(=O)(=O)c1ccccc1 (stereo not drawn),16.2
16,O=C1[C@@H]2Cc3c([nH]c4ccccc34)C(c3ccccc3)N2C(=O)CN1C1CCN(Cc2ccccc2)CC1 (stereo partly drawn),13.1
17,COC(=O)C(Cc1c[nH]c2ccccc12)NC(=O)c1cccc(S(=O)(=O)N2CCCCC2)c1 (stereo not drawn),2.16
18,COc1ccccc1C(=O)NCCC(=O)Nc1ccc(S(=O)(=O)N2C(C)CCCC2C)cc1 (stereo not drawn),5.48
19,Cc1cc2c(c(=O)o1)C1(C(=O)N(CC(=O)O)c3ccccc31)C(C#N)=C(N)O2 (stereo not drawn),13.4
20,COc1ccc(OC)c(/C=N/NC(=O)c2[nH]nc3c2CCc2ccccc2-3)c1,13.1
21,CC(=O)Nc1ccc(S(=O)(=O)N2CCN(c3cc4c(cc3[N+](=O)[O-])n(C)c(=O)n4C)CC2)cc1,8.49
22,O=C(c1cccnc1)N1CCN(c2ccc([N+](=O)[O-])cc2Cl)CC1,-31.5
23,Cc1ccccc1S(=O)(=O)Cc1ccc(C(=O)NCCCN2CCCC(C)C2)o1 (stereo not drawn),4.68
24,CC(=O)c1ccc(NC(=S)N2CCN(S(=O)(=O)c3ccc(F)cc3)CC2)cc1,-0.871
25,CCOC(=O)C(NC(C)=O)(Nc1ccc(S(=O)(=O)Nc2onc(C)c2C)cc1)C(F)(F)F (stereo not drawn),15.8
26,Cc1ccc(C)c(OC(C)C(=O)Nc2ccc(S(=O)(=O)Nc3nccs3)cc2)c1 (stereo not drawn),2.83
27,CCCc1nnc(NC(=O)CCC(=O)Nc2ccc(F)cc2)s1,14.3

row,SMILES,"hERG current change (%, negative = inhibition) at 1uM [%]"
1,Cc1ccc(OCC(=O)Oc2cccc(C)c2C)cc1,11.6
2,CCCN(CC(=O)Nc1ccc(F)c(F)c1F)C(=O)C1CC(=O)N(Cc2ccccc2)C1 (stereo not drawn),0.966
3,COCCCNc1ncnc2nc[nH]c12,12
4,CCCc1cc(=O)[nH]c2nnc(SCC(=O)Nc3cccc(NC(C)=O)c3)n12,17.3
5,Cc1ccc(S(=O)(=O)N(CC(=O)Nc2ccc(F)cc2)C(=O)N2CCN(C)CC2)cc1,15.6
6,COc1ccc(CNC(=O)COC(=O)[C@H](Cc2c[nH]c3ccccc23)NC(=O)c2cccs2)cc1,4.32
7,COc1cc2oc(=O)c(Br)c(C)c2c(OC)c1OC,8.62
8,CC(C)C(=O)Nc1cccc(-c2csc(-c3ccccc3)n2)c1,9.18
9,O=C(CN(C(=O)CCC(=O)Nc1nccs1)c1ccc(F)cc1)NCC1CCCO1 (stereo not drawn),14.7
10,CSc1cccc(NS(=O)(=O)c2cn(C)cn2)c1,10.2
11,COc1c(C)cccc1C(=O)NCc1ccc2c(c1)OCO2,7.84
12,Cc1ccccc1C1CC(c2ccc(Br)cc2)Nc2nc(N)nn21 (stereo not drawn),-16.6
13,COc1cccc(-c2cc(C(=O)N3CCCCCC3)no2)c1,-0.492
14,COc1ccc(OC)c(-n2c(=S)[nH]c3cc(C(=O)N4CCC(C(N)=O)CC4)ccc3c2=O)c1,2.01
15,Cc1ccc(OCc2nnc(SCC(=O)Nc3nccs3)n2-c2ccccc2)cc1C,11.5
16,COc1ccccc1NC(CC(=O)c1ccccc1)C(=O)OCC(=O)c1ccc(C)cc1 (stereo not drawn),7.68
17,COc1cc2ccccc2cc1C(=O)Nc1ccc(S(=O)(=O)Nc2cc(C)on2)cc1,5.53
18,Cc1cccc(N=C/C(C(=O)C(F)(F)F)=C(\O)c2ccco2)c1,5.43
19,Cc1ccc(C)c(S(=O)(=O)NCc2ccc(C(=O)NCc3ccco3)cc2)c1,-5.17
20,NNC(=O)c1nnn(-c2nonc2N)c1CN1CCCC1,7.77
21,Cc1cc(N2C(=O)CC(N3CCN(C(c4ccccc4)c4ccccc4)CC3)C2=O)no1 (stereo not drawn),5.72
22,CS(=O)(=O)N(CC(=O)NCc1ccccn1)c1ccc2c(c1)OCCO2,7.58
23,COc1ccc(N(CC(=O)Nc2cc(OC)cc(OC)c2)S(=O)(=O)c2c(C)n[nH]c2C)cc1,15.7
24,Cc1ccc(NC(=O)CCn2cccc2)cc1F,4.17
25,Cc1c(OCC(=O)NCCN2CCOCC2)ccc2c(-c3ccccc3)cc(=O)oc12,9.14
26,COc1ccc(CCNC(=O)Cc2nn(C)c(=O)c3ccccc23)cc1OC,-4.49
27,O=C(NCCN1C(=O)S/C(=C\c2ccc(Cl)cc2Cl)C1=O)C1=COCCO1,4.33
